According to PubChem BioAssay AID1768 (National Center for Advancing Translational Sciences (NCATS), 2009):
Several values for one entry are separate records, joined by “and”; a condition that tells them apart may be missing. Equal values may be shown once. The campaign covered roughly 270,000 compounds. About 620 (0.23%) were called active. The shares of active, inactive and inconclusive entries below differ from those in the screen. Calls come from the whole dose curve; as a rule, active = well fitted inhibition curve with a large enough effect in the polarisation, with a control signal flat (not every such curve was filed as active); inconclusive = small, poorly fitted or top-dose-only effect, or effect the other way, or a change in a side signal; inactive = no such curve, though single readings can be large or run the other way; the % refers to the polarisation. Where the call is inconclusive, the potency comes from a doubtful curve fit. A note “side channel” means that the fit belongs to a control or component signal, not to the main read-out.

target: Menin (Homo sapiens) (UniProt O00255); assay: qHTS Assay for Inhibitors Targeting the Menin-MLL Interaction in MLL Related Leukemias: Competition With Texas Red Labeled MLL-derived Mutant Peptide; conditions: fluorescence polarization; FP activity change, negative = inhibition: at 61.6 µM (top of the series); for FP activity change, negative = inhibition: % of control where 0% means no effect
Potency is the fitted concentration of half-maximal effect; tags give direction and shape of the fitted curve or compound fluorescence and quenching.

UniProt O00255, sequence (O00255 whole entry, looked up): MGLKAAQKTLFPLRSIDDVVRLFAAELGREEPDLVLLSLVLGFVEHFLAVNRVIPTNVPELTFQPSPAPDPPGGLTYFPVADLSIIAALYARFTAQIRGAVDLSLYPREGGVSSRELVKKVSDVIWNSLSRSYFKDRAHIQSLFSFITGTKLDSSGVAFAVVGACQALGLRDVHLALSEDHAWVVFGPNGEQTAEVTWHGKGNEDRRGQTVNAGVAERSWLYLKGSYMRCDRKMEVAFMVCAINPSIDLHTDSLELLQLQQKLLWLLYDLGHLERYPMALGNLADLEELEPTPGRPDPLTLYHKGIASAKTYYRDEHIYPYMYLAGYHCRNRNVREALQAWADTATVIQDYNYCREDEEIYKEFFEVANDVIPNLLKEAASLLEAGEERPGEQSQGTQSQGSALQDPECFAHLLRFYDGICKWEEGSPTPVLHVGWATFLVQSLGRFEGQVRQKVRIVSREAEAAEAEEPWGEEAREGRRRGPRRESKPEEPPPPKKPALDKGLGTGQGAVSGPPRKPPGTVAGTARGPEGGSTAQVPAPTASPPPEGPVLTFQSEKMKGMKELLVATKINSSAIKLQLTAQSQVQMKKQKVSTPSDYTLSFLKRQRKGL

Compound	Potency	FP activity change, negative = inhibition
O=C(O)Cc1sc(Nc2ccccc2)nc1-c1ccc(Cl)cc1	inconclusive: 25.1 µM [quencher, side channel, partial curve]	–
COc1ccc(C)cc1NC(=O)NNC(=O)c1cc2ccccc2cc1O	inconclusive: 25.1 µM [quencher, side channel, partial curve]	–
O=C(c1ccncc1)c1ccc(NC(=O)c2cccs2)cc1	inconclusive: 39.8 µM [quencher, side channel, single point]	–
c1ccc2[nH]c(SN3CCOCC3)nc2c1	inactive	–
Cc1cccc(C(=O)Nc2cccc(NC(=O)c3ccccc3)c2)c1	inconclusive: 28.2 µM [quencher, side channel, single point]	–
CN(C)S(=O)(=O)c1ccc(C(=O)Nc2nnc(SCc3cccc4ccccc34)s2)cc1	inconclusive: 39.8 µM [inhibitor, single point]	–
Cc1cccc(NC(=S)c2nc3ccccc3s2)c1	inconclusive: 11.2 µM [quencher, side channel, partial curve]	–
COc1ccc(OC)c(CC(=O)NC(c2ccccc2)c2ccccc2)c1	inconclusive: 7.08 µM [quencher, side channel, single point]	–
CN(Cc1ccccc1)C(=O)COc1cc(Cl)ccc1Cl	inconclusive: 17.8 µM [fluorescent, side channel, partial curve]	–
O=C(O)C(c1ccccc1)N1C(=O)/C(=C\c2ccc(-c3ccccc3Cl)o2)SC1=S (stereo unspecified)	inactive	–
CC(C)C1C(C#N)=C(N)SC(N)=C1C#N	inconclusive: 0.631 µM [inhibitor, full curve, poor fit]	–
COc1ccc(/C=C2\SC(=O)N(CC(=O)Nc3cccc(C)c3)C2=O)cc1O	inconclusive: 39.8 µM [fluorescent, side channel, single point]	–
CC(C(=O)N1CCN(Cc2ccc3c(c2)OCO3)CC1)c1ccc([N+](=O)[O-])cc1 (stereo unspecified)	inconclusive: 31.6 µM [fluorescent, side channel, single point]	–
COc1ccc(OC)c(N2C(=O)[C@@H]3C(c4ccccc4Cl)=NO[C@@H]3C2=O)c1	inconclusive: 31.6 µM [quencher, side channel, single point]	–
Cc1ccccc1Cn1cc(S(=O)(=O)CC(=O)Nc2nccs2)c2ccccc21	inconclusive: 25.1 µM [inhibitor, single point]	–
Cc1cc(SCc2ccc([N+](=O)[O-])cc2)nc(=O)[nH]1	inconclusive: 14.1 µM [quencher, side channel, partial curve]	–
CCCCN1C(=O)/C(=C/C=C2\SCCN2C)SC1=S	inconclusive: 14.1 µM [quencher, side channel, partial curve]	–
CCOc1ccccc1/C=c1\sc2nc(-c3ccco3)nn2c1=O	inconclusive: 4.47 µM [quencher, side channel, full curve]	–
COC(=O)c1c(NC(=O)COC(=O)[C@@H](NS(=O)(=O)c2ccccc2)C(C)C)sc2c1CCC2	inconclusive: 25.1 µM [fluorescent, side channel, partial curve]	–

Compound	Potency	FP activity change, negative = inhibition
Cc1nnc(NC(=O)CSc2nc3ccccc3o2)s1	inactive	–
CCCc1nnc(SCC(=O)Nc2cccc(Cl)c2Cl)o1	inconclusive: 25.1 µM [quencher, side channel, single point]	–
Cc1cc2ccc(C)c(C)c2nc1SCC#N	inconclusive: 39.8 µM [inhibitor, single point]	–
CCCCC1=CC2=C(c3ccco3)C(=O)C(C)(OC(=O)c3ccc(OC)cc3)C(=O)C2=CN1Cc1ccccc1 (stereo unspecified)	–	inactive: 0.625% [at 11.7 µM]
O=C(Nc1ccc(F)cc1)N(CCCN1CCOCC1)Cc1cc2cc3c(cc2[nH]c1=O)OCCO3	inactive	–
COc1ccc(Nc2nc3ccccc3nc2NS(=O)(=O)c2cccs2)cc1	inconclusive: 12.6 µM [quencher, partial curve]	–
CC(C)(C)c1ccc(C(=O)CSc2nc3ccccc3c(=O)[nH]2)cc1	inconclusive: 28.2 µM [fluorescent, side channel, partial curve]	–
Cc1cc(C(=O)Nc2ccc(Nc3ccccc3)cc2)ccc1[N+](=O)[O-]	inconclusive: 12.6 µM [quencher, side channel, partial curve]	–
O=C(Oc1ccc(C(=S)N2CCOCC2)cc1)c1ccc([N+](=O)[O-])cc1[N+](=O)[O-]	inactive	–
N#Cc1ccc(C(=O)Nc2ccc([N+](=O)[O-])cc2)c(F)c1	inconclusive: 28.2 µM [quencher, side channel, single point]	–
COc1ccccc1Nc1ncnc2c1cnn2-c1cccc(C)c1	inconclusive: 5.01 µM [quencher, side channel, single point]	–
CN(C)S(=O)(=O)c1cccc(NC(=O)COC(=O)CCSc2ccc(Cl)cc2)c1	inconclusive: 3.55 µM [quencher, side channel, partial curve]	–
COc1ccc2[nH]cc(CCNC(C)=O)c2c1	inconclusive: 12.6 µM [inhibitor, partial curve, poor fit]	–
O=S(N1CCc2ccccc21)C12CC3CC(CC(C3)C1)C2 (stereo unspecified)	inconclusive: 10 µM [fluorescent, side channel, full curve, poor fit]	–
CCOc1ccc(/C=C2\SC(=S)N(CCC(=O)Nc3ccccc3C(=O)O)C2=O)cc1	inconclusive: 14.1 µM [quencher, side channel, partial curve]	–
Cc1c(C(=O)NNC(=O)Nc2ccc([N+](=O)[O-])cc2)oc2ccccc12	inconclusive: 28.2 µM [quencher, side channel, partial curve]	–
O=[N+]([O-])c1cc2c(cc1/C=N/n1c(-c3ccccc3)n[nH]c1=S)OCO2	inconclusive: 25.1 µM [quencher, side channel, single point]	–
CCCCc1ccc(-c2csc(/C(C#N)=C/c3ccco3)n2)cc1	inconclusive: 14.1 µM [quencher, side channel, partial curve]	–
Oc1cccc(CCC2CCCCN2Cc2cn[nH]c2-c2ccc3c(c2)OCO3)c1 (stereo unspecified)	inconclusive: 39.8 µM [inhibitor, single point]	–

Compound	Potency	FP activity change, negative = inhibition
Cc1ncsc1C(=O)N1N=C2/C(=C/c3ccc(N4CCOCC4)cc3)CCCC2C1c1ccc(N2CCOCC2)cc1 (stereo unspecified)	inactive	–
Cc1ccc2nc(-c3ccc(NC(=O)CSc4nccc(=O)[nH]4)cc3)sc2c1	inconclusive: 39.8 µM [inhibitor, single point]	–
COc1ccc(C(=O)CSC2=C(C#N)C3(CCCCC3)C(C#N)=C(N)N2)cc1	inconclusive: 20 µM [quencher, side channel, single point]	–
O=Nc1c(-c2c(O)[nH]c3ccccc23)[nH]c2ccccc12	inconclusive: 3.55 µM [quencher, side channel, full curve] and inconclusive: 7.94 µM [quencher, side channel, partial curve]	–
CC(=O)OCc1c(C(F)(F)F)nn(C)c1SCc1ccc(Cl)cc1	inconclusive: 11.2 µM [fluorescent, side channel, partial curve]	–
COc1cc(Br)c(-c2sc(Nc3ccccc3)n[n+]2-c2ccccc2)cc1OC	inconclusive: 11.2 µM [inhibitor, partial curve]	–
O=C(c1cc(-c2ccc(Cl)cc2)n(-c2ccc(Cl)c(Cl)c2)n1)N1CCOCC1	inconclusive: 39.8 µM [inhibitor, single point]	–
CCCCC(=O)Nc1cccc(NC(=O)c2cccc([N+](=O)[O-])c2)c1	inconclusive: 8.91 µM [quencher, side channel, partial curve]	–
COc1ccc(/C=C/C(=O)NC(=S)NNC(=O)c2cccs2)cc1	inconclusive: 2.82 µM [quencher, side channel, full curve]	–
N#Cc1c2ccc(OCC(N)=O)cc2n2ccccc12	inconclusive: 20 µM [quencher, side channel, single point]	–
Cc1ccc(C)c(-n2c(-c3ccc(Br)cc3)csc2=NC(=O)c2ccccc2F)c1	inconclusive: 6.31 µM [fluorescent, side channel, partial curve]	–
CC(=O)N1CCCc2cc(S(=O)(=O)N(C)Cc3ccccc3)ccc21	inconclusive: 0.631 µM [inhibitor, full curve, poor fit]	–
N#CC(C#N)=CN=c1ccn(Cc2ccc(Cl)cc2Cl)cc1	inconclusive: 39.8 µM [inhibitor, single point]	–
CS(=O)(=O)Nc1ccc(C2=NN(C(=O)c3cccc(F)c3)C(c3cccs3)C2)cc1 (stereo unspecified)	inconclusive: 28.2 µM [quencher, side channel, partial curve]	–
O=C(/C(=C/c1ccc(Cl)cc1)c1nc2ccccc2[nH]1)c1ccccc1	inconclusive: 39.8 µM [inhibitor, single point]	–
CN(C)S(=O)(=O)N1CCC(Oc2ccc(C(=O)NC3CCCCC3)cc2)CC1	inconclusive: 28.2 µM [inhibitor, single point]	–
COc1ccc(Br)cc1-c1nc2c(c(=O)[nH]c(=O)n2Cc2ccccc2)n1C	inconclusive: 31.6 µM [fluorescent, side channel, partial curve]	–
CCCCCc1ccc(-c2cn(CCc3c[nH]c4ccccc34)nn2)cc1	inconclusive: 22.4 µM [fluorescent, side channel, single point]	–
